{
  "source": "the BET-seq Pho4 binding data (Le et al. 2018)",
  "note": "The other results are listed elsewhere or left out. Values were computed here from the reads of four pooled replicates and scatter widely.",
  "data": [
    {"target": "T1, Pho4 (S. cerevisiae) (UniProt P07270)", "T1 sequence": "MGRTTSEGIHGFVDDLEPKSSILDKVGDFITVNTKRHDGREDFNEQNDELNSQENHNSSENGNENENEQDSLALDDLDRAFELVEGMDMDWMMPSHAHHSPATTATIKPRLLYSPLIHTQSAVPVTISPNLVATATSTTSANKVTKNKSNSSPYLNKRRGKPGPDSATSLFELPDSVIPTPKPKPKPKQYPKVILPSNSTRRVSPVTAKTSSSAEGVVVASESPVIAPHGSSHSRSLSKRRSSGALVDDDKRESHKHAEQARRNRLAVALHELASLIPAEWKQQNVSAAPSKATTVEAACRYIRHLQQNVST", "experiment": "relative binding free energy (BET-seq); higher = weaker binding", "conditions": "reference: library average", "units": {"relative binding free energy": "kcal/mol"}, "values": [
      {"sequence": "ATATACACGTGGGCTT", "relative binding free energy": -0.23},
      {"sequence": "GTGGACACGTGTTCGA", "relative binding free energy": -0.02},
      {"sequence": "TGTTACACGTGAGTTT", "relative binding free energy": 0.33},
      {"sequence": "TCAGTCACGTGGAAGT", "relative binding free energy": 0.09},
      {"sequence": "TTGGACACGTGAGGTA", "relative binding free energy": 0.32},
      {"sequence": "AAGGGCACGTGGGAGA", "relative binding free energy": -0.24},
      {"sequence": "ACGTGCACGTGTGGGC", "relative binding free energy": 0.03},
      {"sequence": "TAGTGCACGTGCGTGG", "relative binding free energy": -0.13},
      {"sequence": "GTGGTCACGTGGCTAT", "relative binding free energy": 0.14},
      {"sequence": "GTGCGCACGTGGTTGG", "relative binding free energy": -0.08},
      {"sequence": "GTGTGCACGTGACATA", "relative binding free energy": 0.15},
      {"sequence": "TGGGACACGTGGGTTC", "relative binding free energy": -0.05},
      {"sequence": "TCTATCACGTGAGGCG", "relative binding free energy": 0.45},
      {"sequence": "ATGGGCACGTGAATTA", "relative binding free energy": 0.15},
      {"sequence": "GTTACCACGTGGAAGT", "relative binding free energy": 0.15},
      {"sequence": "TGTAGCACGTGTAATG", "relative binding free energy": -0.04},
      {"sequence": "GGTAGCACGTGGGCGA", "relative binding free energy": -0.26},
      {"sequence": "GTATCCACGTGTTTAG", "relative binding free energy": 0.17},
      {"sequence": "TATATCACGTGTAGCT", "relative binding free energy": 0.21},
      {"sequence": "GACCGCACGTGGAGGG", "relative binding free energy": 0.01},
      {"sequence": "TAATGCACGTGTGAGT", "relative binding free energy": -0.02},
      {"sequence": "GTCGTCACGTGATGTC", "relative binding free energy": 0.25},
      {"sequence": "TGTATCACGTGGGGCC", "relative binding free energy": 0.01},
      {"sequence": "ATTGTCACGTGGGTCA", "relative binding free energy": 0.02},
      {"sequence": "AGGTACACGTGTACGG", "relative binding free energy": 0.08},
      {"sequence": "AGCGACACGTGGTTGG", "relative binding free energy": 0.11},
      {"sequence": "TTGGTCACGTGGGCAG", "relative binding free energy": -0.09},
      {"sequence": "AGATGCACGTGGGGGG", "relative binding free energy": -0.23},
      {"sequence": "ATGGCCACGTGGGTTG", "relative binding free energy": -0.2},
      {"sequence": "GCTGGCACGTGCAGGT", "relative binding free energy": -0.06},
      {"sequence": "CCGTTCACGTGGGTTT", "relative binding free energy": 0.08},
      {"sequence": "GAATTCACGTGGGGGC", "relative binding free energy": 0.36},
      {"sequence": "TGTTGCACGTGTTGAG", "relative binding free energy": -0.02},
      {"sequence": "TATGCCACGTGCGGGT", "relative binding free energy": -0.12},
      {"sequence": "GAAGGCACGTGATGAT", "relative binding free energy": 0.18},
      {"sequence": "CCGGTCACGTGTAGTT", "relative binding free energy": 0.12},
      {"sequence": "GGTCTCACGTGGTGGT", "relative binding free energy": 0.17},
      {"sequence": "TTTGACACGTGCACGG", "relative binding free energy": -0.04},
      {"sequence": "TGGATCACGTGTCGGG", "relative binding free energy": 0.26},
      {"sequence": "TCGATCACGTGCTGTT", "relative binding free energy": 0.23},
      {"sequence": "TGATGCACGTGAGAGG", "relative binding free energy": 0.13},
      {"sequence": "TTTGGCACGTGTGCTA", "relative binding free energy": 0.02},
      {"sequence": "GGAGACACGTGTTAGG", "relative binding free energy": 0.01},
      {"sequence": "TTGAGCACGTGTTTCG", "relative binding free energy": -0.1},
      {"sequence": "TCGTGCACGTGAAGTT", "relative binding free energy": 0.11},
      {"sequence": "GTACGCACGTGGTATT", "relative binding free energy": -0.02},
      {"sequence": "CGAGGCACGTGTGAGG", "relative binding free energy": -0.08},
      {"sequence": "GTCTTCACGTGGGGTC", "relative binding free energy": 0.22},
      {"sequence": "GAATACACGTGGTGAG", "relative binding free energy": 0.11},
      {"sequence": "TGGTACACGTGCGTCT", "relative binding free energy": -0.01},
      {"sequence": "AAAGACACGTGGGGCG", "relative binding free energy": -0.14},
      {"sequence": "GATGGCACGTGAGTCG", "relative binding free energy": 0.22},
      {"sequence": "CGGTGCACGTGAGGGG", "relative binding free energy": 0.17},
      {"sequence": "GGTGTCACGTGCGGTT", "relative binding free energy": 0.15},
      {"sequence": "TTCGTCACGTGCAGGG", "relative binding free energy": 0.02},
      {"sequence": "TAGGTCACGTGCATGT", "relative binding free energy": 0.07},
      {"sequence": "TTTGGCACGTGCGTAG", "relative binding free energy": -0.15},
      {"sequence": "AGTAGCACGTGCGGCG", "relative binding free energy": -0.11},
      {"sequence": "CAGGTCACGTGACGGG", "relative binding free energy": 0.08},
      {"sequence": "TGGAACACGTGTGTAT", "relative binding free energy": 0.03},
      {"sequence": "GGGTACACGTGGGGGC", "relative binding free energy": 0.03},
      {"sequence": "AAGTGCACGTGTGGGG", "relative binding free energy": 0.08},
      {"sequence": "TTCGGCACGTGAAAGG", "relative binding free energy": 0.03},
      {"sequence": "TTAGACACGTGTATTT", "relative binding free energy": 0.15},
      {"sequence": "TTGTGCACGTGAAGGG", "relative binding free energy": 0.24},
      {"sequence": "GTTGTCACGTGGTGGG", "relative binding free energy": 0.04},
      {"sequence": "TTGATCACGTGGCTGG", "relative binding free energy": 0.14},
      {"sequence": "TAAATCACGTGTGAAG", "relative binding free energy": 0.07},
      {"sequence": "AAGGCCACGTGTGAGT", "relative binding free energy": -0.03},
      {"sequence": "GAACGCACGTGGGTGG", "relative binding free energy": -0.3},
      {"sequence": "TTTGGCACGTGTCACG", "relative binding free energy": -0.03},
      {"sequence": "GGTAGCACGTGTATAA", "relative binding free energy": -0.01},
      {"sequence": "TACTTCACGTGTTAAA", "relative binding free energy": 0.35},
      {"sequence": "ATTCTCACGTGTTTAT", "relative binding free energy": 0.29},
      {"sequence": "TAGCTCACGTGTGGCG", "relative binding free energy": 0.24},
      {"sequence": "TTCTACACGTGAGGGG", "relative binding free energy": 0.2},
      {"sequence": "TTATACACGTGAGGCT", "relative binding free energy": 0.26},
      {"sequence": "GCAGGCACGTGGGCGG", "relative binding free energy": -0.45},
      {"sequence": "TAAAGCACGTGTTGAT", "relative binding free energy": -0.1},
      {"sequence": "ATTGGCACGTGAGCGT", "relative binding free energy": 0.09},
      {"sequence": "TGCGTCACGTGTGTCG", "relative binding free energy": 0.07},
      {"sequence": "ATGAGCACGTGTAGTT", "relative binding free energy": -0.05},
      {"sequence": "AGTCGCACGTGAGGGC", "relative binding free energy": 0.16},
      {"sequence": "TGGCGCACGTGTCGGG", "relative binding free energy": -0.05},
      {"sequence": "TGTGTCACGTGGGAGA", "relative binding free energy": 0.08},
      {"sequence": "TGAGGCACGTGAGTAT", "relative binding free energy": 0.01},
      {"sequence": "TAGTTCACGTGATACG", "relative binding free energy": 0.28},
      {"sequence": "TGCTTCACGTGTGTCA", "relative binding free energy": 0.38},
      {"sequence": "TATTACACGTGGCAGG", "relative binding free energy": 0.07},
      {"sequence": "TGCTTCACGTGGTTTC", "relative binding free energy": 0.14},
      {"sequence": "TTTGTCACGTGTGGCC", "relative binding free energy": 0.1},
      {"sequence": "TTCTTCACGTGTCGGC", "relative binding free energy": 0.46},
      {"sequence": "CGTTGCACGTGTTTGT", "relative binding free energy": 0.01},
      {"sequence": "GGTCACACGTGTTATG", "relative binding free energy": 0.05},
      {"sequence": "GGTCGCACGTGTCTGT", "relative binding free energy": -0.13},
      {"sequence": "TTGTTCACGTGAGCCG", "relative binding free energy": 0.36},
      {"sequence": "AGGAGCACGTGGAGGC", "relative binding free energy": -0.18},
      {"sequence": "TTGTGCACGTGCCGGA", "relative binding free energy": -0.18},
      {"sequence": "AATGTCACGTGTCGCT", "relative binding free energy": 0.14},
      {"sequence": "CATTGCACGTGTGATT", "relative binding free energy": 0.09},
      {"sequence": "ATTTTCACGTGTAGTT", "relative binding free energy": 0.18},
      {"sequence": "TCTGGCACGTGGAGGG", "relative binding free energy": -0.14},
      {"sequence": "TTGTCCACGTGTTGGA", "relative binding free energy": 0},
      {"sequence": "TTAGACACGTGTTCTT", "relative binding free energy": -0.06},
      {"sequence": "TGTAGCACGTGAGATG", "relative binding free energy": 0.04},
      {"sequence": "GTAGGCACGTGTTGTT", "relative binding free energy": 0.01},
      {"sequence": "ATGGACACGTGGAATT", "relative binding free energy": 0.18},
      {"sequence": "TATGGCACGTGTCGAG", "relative binding free energy": 0.01},
      {"sequence": "TATGTCACGTGTTCAA", "relative binding free energy": 0.03},
      {"sequence": "GTGGCCACGTGTTCGG", "relative binding free energy": 0.03},
      {"sequence": "GGTGCCACGTGGGATA", "relative binding free energy": -0.15},
      {"sequence": "GTTGACACGTGATGAG", "relative binding free energy": 0.19},
      {"sequence": "TGGTTCACGTGAGGAT", "relative binding free energy": 0.36},
      {"sequence": "TTAGACACGTGTTGTG", "relative binding free energy": -0.04},
      {"sequence": "CGGGACACGTGGTTGA", "relative binding free energy": 0.03}
    ]}
  ]
}
